The full ranking holds about 110,000 compounds; the median of “z-score” is about -0.1, and the highest 2% start at about 2. The list shows a part of the results. The source made the active and inactive calls.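 Rule for the calls: active = z-score in the third read window above 3 or below -3; inactive = the rest.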
Biological target: Metabotropic glutamate receptor 8 (Rattus norvegicus) (UniProt P70579)
Experiment: mGluR8 Gi/Go-coupled signaling modulation – cell-based, rat, thallium flux, HTS, primary screen (AID 488969)
Conditions: HEK293 rat mGluR8, GIRK (G protein-gated inwardly rectifying potassium channel) thallium flux, FluoZin2; at 10 µM; stronger effect = higher value; submaximal glutamate (EC20) added with thallium

UniProt P70579, sequence (P70579 whole entry, looked up): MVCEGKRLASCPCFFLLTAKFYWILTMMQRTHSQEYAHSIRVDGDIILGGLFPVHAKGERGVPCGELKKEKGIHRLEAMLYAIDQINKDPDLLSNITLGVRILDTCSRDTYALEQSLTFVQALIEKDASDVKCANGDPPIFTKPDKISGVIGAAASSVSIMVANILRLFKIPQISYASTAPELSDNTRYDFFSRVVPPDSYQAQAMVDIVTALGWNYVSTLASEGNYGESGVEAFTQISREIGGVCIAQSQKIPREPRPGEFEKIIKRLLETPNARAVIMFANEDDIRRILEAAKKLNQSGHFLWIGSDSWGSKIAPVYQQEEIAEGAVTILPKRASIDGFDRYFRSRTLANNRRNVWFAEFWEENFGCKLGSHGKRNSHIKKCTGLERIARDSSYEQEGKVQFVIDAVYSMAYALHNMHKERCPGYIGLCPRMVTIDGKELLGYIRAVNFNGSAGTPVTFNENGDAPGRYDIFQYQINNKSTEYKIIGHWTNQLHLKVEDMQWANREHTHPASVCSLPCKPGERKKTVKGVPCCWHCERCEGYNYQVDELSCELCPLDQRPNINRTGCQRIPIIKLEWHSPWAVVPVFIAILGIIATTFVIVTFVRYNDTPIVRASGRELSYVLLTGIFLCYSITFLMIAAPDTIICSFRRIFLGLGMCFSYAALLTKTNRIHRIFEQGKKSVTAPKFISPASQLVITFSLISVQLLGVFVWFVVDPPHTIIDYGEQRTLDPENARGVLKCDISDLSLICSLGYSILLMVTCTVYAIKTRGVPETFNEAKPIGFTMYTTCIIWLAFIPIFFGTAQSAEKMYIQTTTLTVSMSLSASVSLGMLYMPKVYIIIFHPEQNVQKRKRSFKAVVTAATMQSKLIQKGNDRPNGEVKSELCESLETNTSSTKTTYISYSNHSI

| Structure (SMILES) | z-score |
| --- | --- |
| COc1ccc(C(=O)NC(=O)Nc2cc(C)ccn2)cc1 | -0.705 |
| CC(NC(=O)Cc1cccs1)C(c1cccs1)N1CCN(c2ccccc2F)CC1 (configuration not stated) | -0.436 |
| COc1ccccc1Oc1ccc2c(c1)C(=O)N(c1ccc(Br)c3cccnc13)C2=O | 0.318 |
| Cc1ccc(CNC(=O)C2CC(=O)OC23CCCC3)c(C)c1 (configuration not stated) | -0.122 |
| Cn1nnc(NC(=O)CSc2ncn[nH]2)n1 | -0.711 |
| COc1ccc(C(NC(=O)C(C)C)c2c(O)ccc3ccccc23)cc1OC (configuration not stated) | -0.145 |
| O=C(NCc1ccccc1)N1CCC(n2cnc3cc(F)ccc32)CC1 | -0.134 |
| COC(=O)COc1ccc(S(=O)(=O)NCc2ccco2)cc1 | -0.0668 |
| COC(=O)C1CCN(c2cc(=O)n(C3CCCCC3)c(=O)[nH]2)CC1 | -0.0521 |
| Cc1ccc2c(c1)C1(OCCO1)C(=O)N2 | -0.0754 |
| O=c1cc(N2CCN(c3ccccc3)CC2)[nH]c(=O)n1Cc1ccc(F)cc1 | -0.202 |
| Cc1cc(C)n(-c2ccc(C(=O)OCC(=O)Nc3ccc(S(=O)(=O)N4CCOCC4)cc3)cc2)n1 | 1.12 |
| COc1ccccc1N1CCN(C(=O)c2cc(-c3ccc4c(c3)OCO4)on2)CC1 | -0.0906 |
| C=CCNc1ncnc2ccccc12 | -0.206 |
| COc1cccc(N2CC(C(=O)OC(C)C(=O)c3ccccc3)CC2=O)c1 (configuration not stated) | -0.0599 |
| COc1ccc(-n2nnc3c(=O)n(Cc4cc(C)ccc4C)cnc32)cc1 | -0.177 |
| Cc1ccc(NC(=O)c2cc(=O)c3ccccc3o2)c(C)c1 | 0.414 |
| O=C(NCCc1ccccc1)c1ccc(CS(=O)(=O)Cc2ccccc2F)o1 | -0.21 |
| COc1cccc(C(=O)CSc2nnc(-c3cccs3)o2)c1 | -0.28 |

| Structure (SMILES) | z-score |
| --- | --- |
| COc1ccc(OC)c(C(=O)COC(=O)CNC(=O)c2ccccc2)c1 | -0.486 |
| CCC(C)Sc1nc(O)cc(=O)[nH]1 (configuration not stated) | 0.0633 |
| CC12CC3CC(C)(C1)CC(C(=O)NC(=S)N1CCCCC1)(C3)C2 | active: 8.62 |
| CCN(CC)C(=O)CSc1nsc(SCC(=O)N(CC)CC)c1C#N | 0.00897 |
| CCN1CCN(CC(=O)Nc2c(C(=O)OC)[nH]c3cccc(Cl)c23)CC1 | 0.0978 |
| Clc1ccc(SCc2cn3cccnc3n2)cc1 | -0.175 |
| COc1nc(C#N)c(N2CCOCC2)o1 | -0.118 |
| COc1ccc(/C(N)=N/OC(=O)c2ccc3c(c2)OCO3)cc1OC | -0.294 |
| O=C(NCc1ccco1)C(c1ccncc1)N(CCC1=CCCCC1)C(=O)Cn1nnc2ccccc21 (configuration not stated) | -0.0711 |
| O=C1c2ccccc2NC(c2cnc3ccccc3n2)N1O (configuration not stated) | -0.216 |
| CCOC(=O)C(=O)Nc1nc(-c2ccccc2)c(CC)s1 | -1.37 |
| COc1ccc(-c2cc(C(F)(F)F)nc(SCCC(=O)N3CCCC3)n2)cc1 | 0.386 |
| O=C(CSc1ncn[nH]1)NCCC(c1ccccc1)c1ccccc1 | -0.443 |
| Cc1ccc(S(C)(=O)=O)cc1S(=O)(=O)Nc1ccccc1 | -0.0942 |
| CCN(CC)S(=O)(=O)c1ccc(N2C(=O)Nc3ccccc3N2O)cc1 | -0.0358 |
| Cc1ccc(-n2c(Cc3cccn3C)nnc2SCC(=O)NC2CCCCC2)cc1 | 0.061 |
| CCOC(=O)c1cc2c(nc1N)CC(C)(C)OC2 | -0.353 |
| Cc1c(/C=N\NC(=O)C2COc3ccccc3O2)c2ccccc2n1C (configuration not stated) | -0.12 |
| CCC(=O)Nc1ccc(SC#N)cc1C | 0.137 |

| Structure (SMILES) | z-score |
| --- | --- |
| Cc1cccc(OCC(=O)N2CCN(C(=O)c3cccs3)CC2)c1 | -0.8 |
| O=C(Oc1ccc(-c2nnco2)cc1)N1CCOCC1 | 0.766 |
| CCOc1ccc(C(=O)Nc2ccc(NC(=O)c3cccs3)cc2)cc1[N+](=O)[O-] | -0.129 |
| CCN(CC)c1ccc(-n2c(O)c(C=C3N=c4ccccc4=N3)sc2=S)cc1 | -0.392 |
| Cc1ccccc1NCc1ccccc1O | -0.623 |
| CC1CCN(CCCNC(=O)C2CCN(S(=O)(=O)N3CCCCC3)CC2)CC1 | 0.641 |
| COc1cc(/C=C/C(=O)OCC(=O)N2CCc3ccccc3C2)ccc1O | -0.652 |
| CC(C)C(=O)N(Nc1nc2ccccc2s1)C(=O)C(C)C | 0.308 |
| CCN(CC)C(=O)CCC(=O)Nc1ccc(C(=O)OC)cc1 | 0.225 |
| O=C(/C=C/c1ccccc1)NC(=S)NNC(=O)c1cccnc1 | 0.417 |
| O=C(O)C1CC(=O)N(c2ccc(F)c(F)c2)C1 (configuration not stated) | 0.0874 |
| CCCCCCn1c(SCC(=O)c2c(N)n(C)c(=O)n(C)c2=O)nc2ccccc21 | -0.182 |
| CCc1nnc(NC(=O)NC(C)(C)C)s1 | -0.201 |
| CCOC(=O)c1ccc(N2C(=O)C=CC2=O)cc1 | 0.192 |
| Nc1nc(Cl)cc(N2CCOCC2)n1 | -0.137 |
| COc1ccc(CCC(=O)Nc2ccc(-c3noc(-c4ccc(OC)c(OC)c4)n3)cc2)cc1 | -0.342 |
| COCCNC(=O)C1CCC(=O)N(c2ccc(OC)cc2)C1c1ccc(OC)c(OC)c1 (configuration not stated) | 0.711 |
| Cc1c(NC2=NC3(CCCCC3)Cc3ccccc32)c(=O)n(C)n1-c1ccccc1 | -0.223 |
| COc1ccc(N2CC(C(=O)Nc3nnc(SCC(=O)c4ccccc4)s3)CC2=O)cc1 (configuration not stated) | -0.344 |

Source: PubChem BioAssay AID488969 (Vanderbilt High Throughput Screening Facility, 2010)
